Laboratory results: PubChem BioAssay AID1347073 (National Center for Advancing Translational Sciences (NCATS), 2019)
Hit rate of the full screen: of about 45,000 compounds, about 200 (0.44%) were called active. Inconclusive results (about 7%) are left out. The call rests on the fitted dose curve; in most records, active means well fitted activation curve with a large enough effect; inconclusive means small, poorly fitted or top-dose-only effect; inactive means no such curve, though single readings can be large or run the other way. The list shows a part of the results.

Assay: qHTS of TDP-43 Inhibitors: NCGC Sytravon Library Screen; further: 0% is about no effect; nearly all actives have a fitted effect of over 55% in size
Settings: yeast TDP-43 toxicity rescue, BacTiter-Glo growth, 24 h; series mostly up to 46.1 µM; growth rescue (activation): at the top concentration
Method in brief: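 TDP-43-expressing yeast, pregrown in raffinose, seeded at OD600 0.02 in galactose medium with compound for 24 hr at 30 deg C. Growth read by BacTiter-Glo luminescence, so rescue of toxicity appears as activation.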

SMILES	growth rescue (activation)	Potency
O=C(NCc1cccnc1)NC1CCCN1S(=O)(=O)c1ccc(Cl)cc1 (stereo not drawn)	inactive: 13.5%	
COc1ccc(C(=O)NCC2CCCCC2)cc1S(=O)(=O)N1CCOCC1	inactive: 2.06%	
CCC(=O)N1CCC1(C)C(=O)Nc1ccc2scnc2c1 (stereo not drawn)	inactive: 8.32%	
CCCOC(=O)/C(=C\C=C\c1ccccc1)NC(=O)c1ccccc1	inactive: -2.07%	
Cc1cccn2cc(-c3ccc(S(=O)(=O)N4CCCCC4)cc3)nc12	inactive: 10.4%	
CC1(C)CC(N2CN(C3CCCCC3)CC2=O)CC(C)(C)N1	inactive: -10.5%	
C/C(=N\NS(=O)(=O)c1ccc(C)c([N+](=O)[O-])c1)c1cccs1	inactive: 17.8%	
Cc1cc(C(=O)N/N=C/c2cc(N=Nc3ccccc3)ccc2O)n[nH]1	inactive: 3.53%	
CCOc1cc(/C=N/Nc2nc(Nc3ccccc3)nc(N3CCCCC3)n2)ccc1OCC(=O)O	inactive: 11.1%	
O=S(=O)(NCCN1CCN(S(=O)(=O)c2ccccc2F)CC1)c1ccccc1F	inactive: 16.3%	
CCCC(=O)C1=C(N2CCCC2)CC(C)(C)C(C(=O)OC)C1=O (stereo not drawn)	inactive: 5.58%	
O=C(COc1ccc(Cl)cc1)N1CCCCCCC1	inactive: 26.4%	
COc1ccc(Nc2nc(-c3ccncc3)nc3ccccc23)cc1	inactive: 11.2%	
CCOc1ccc(NC(=O)CS(=O)CC(=O)Nc2cccnc2)cc1 (stereo not drawn)	inactive: 4.53%	
CN(C)S(=O)(=O)c1ccc(N2CCCC2)c(C(=O)Nc2ccccc2OC(F)F)c1	inactive: 15.4%	
CCCn1c(SCC(=O)NC(C)C)nc2sc3c(c2c1=O)CCC3	inactive: 10.8%	
Cc1cc(NS(=O)(=O)c2ccc(NC(=O)CCCOc3ccccc3C)cc2)no1	inactive: -5.72%	
COc1ccc(NS(=O)(=O)c2cccc(NC(=O)COc3ccccc3[N+](=O)[O-])c2)cc1	inactive: -9.26%	
COc1cc(Br)cc(/C=N/N(CCO)C2=NS(=O)(=O)c3ccccc32)c1OC	inactive: 0.602%	
CCOc1ccc(NC(=S)N(CCOC)C(C)c2cccnc2)cc1 (stereo not drawn)	inactive: -22.4%	
COc1ccc(C(C(=O)NCC2CCCO2)N(C(=O)Cn2nnc3ccccc32)c2ccc(NC(C)=O)cc2)cc1OC (stereo not drawn)	inactive: 14.2%	
Cc1cc(CN(C)Cc2c(C(=O)N3CCCCCCC3)nc3ccc(Cl)cn23)n[nH]1	inactive: -14.4%	

SMILES	growth rescue (activation)	Potency
Cc1cccc(NC(=S)NCCCN2CCOCC2)c1	inactive: -12.3%	
COc1ccc(N=Cc2cc3c(cc2O)OC(N)=C(C#N)C3c2ccccc2)cc1 (stereo not drawn)	inactive: -7.96%	
Cc1noc(C)c1S(=O)(=O)N1CCC(C(=O)NCCCN2CC(C)CC(C)C2)CC1 (stereo not drawn)	inactive: -12.9%	
O=C(Nc1ccc(OC(F)(F)F)cc1)C1CC(c2ccc(F)cc2)=NO1 (stereo not drawn)	inactive: -3.79%	
CC(=O)c1ccc(Nc2nc(C(N)c3ccccc3Cl)cs2)cc1 (stereo not drawn)	inactive: -12.5%	
Cc1cc(/C=C(\C#N)C(=O)NC2CCCCCC2)c(C)n1C	inactive: -0.301%	
CCCCN(C(=O)C1CCN(C(=O)c2ccccc2C)CC1)c1c(N)n(CCC)c(=O)[nH]c1=O	inactive: -15.1%	
O=C(CSc1nnnn1C1CC2C=CC1C2)Nc1ccc(C(=O)O)cc1 (stereo not drawn)	inactive: -11.7%	
CCC1N=C(SC)NC(C)=C1C(=O)c1ccccc1 (stereo not drawn)	inactive: -11.1%	
O=c1nc(N/N=C/c2c[nH]c3ccccc23)cn[nH]1	inactive: 25.5%	
Cc1ccc(S(=O)(=O)NC2CC(C)(C)NC(C)(C)C2)cc1C	inactive: 9.86%	
O=C(CCN1C(=O)/C(=C/c2ccccc2)SC1=S)N1CCCCCC1	inactive: 23.9%	
COc1ccc(Nc2nc(-c3ccccc3)nc3ccccc23)c(OC)c1	inactive: 9.16%	
COc1cccc(CN(C)C(=O)c2cccc(OC3CCN(C4CCCC4)CC3)c2)c1	inactive: 10.9%	
O=C(Nc1ccccc1F)c1c[nH]c(=O)[nH]c1=O	inactive: 8.44%	
CC1(Oc2ccc(Cl)cc2)CCN(Cc2ccc(OC(F)(F)F)cc2)C1 (stereo not drawn)	inactive: 18.5%	
COc1ccc(C(=O)COC(=O)c2cc(=O)c3ccccc3o2)cc1	inactive: -31.8%	
CCn1c(SCC(=O)NC2CC2)nnc1-c1cccc(OC)c1	inactive: -2.71%	
O=C(C1CCN(Cc2ccccc2)CC1)N1CCN(C/C=C/c2ccccc2)CC1	inactive: -3.09%	
CCOc1ccc(NC(=O)N2CCC(n3nnc4ccccc43)CC2)cc1	inactive: -0.0668%	
COc1cc(CN2C[C@@H](CO)O[C@@H](n3cnc4c(NC5CCC5)ncnc43)C2)cc(OC)c1OC	inactive: 1.42%	
N#CCCN(C(=O)COc1ccc(C#N)cc1)c1ccc(F)cc1	inactive: 13.5%	

SMILES	growth rescue (activation)	Potency
O=C(N/N=C/C(Br)=C/c1ccccc1)C(O)c1ccccc1 (stereo not drawn)	inactive: 28.8%	
Cc1ccccc1S(=O)(=O)NC(=O)C1(C)CCN1C(=O)c1cccc2ccccc12 (stereo not drawn)	inactive: 16.9%	
O=C(CSc1nc(-c2ccc(F)cc2)nc2c1Cc1ccccc1O2)Nc1cccc(C(=O)O)c1		inactive
CCOC(=O)C1=C(C(F)(F)F)Nc2ncnn2C1c1cc(OC)ccc1OC (stereo not drawn)	inactive: 6.4%	
COc1ccc(NC(=O)CCSc2ccc(C)cc2)cc1S(=O)(=O)Nc1ccccc1Cl	inactive: -13%	
C=CCn1c(SCC(=O)NC2CC2)nc2sc(CC)cc2c1=O	inactive: 5.57%	
O=c1cnnc(Nc2ccc(Cl)c(C(F)(F)F)c2)[nH]1	inactive: -10.6%	
O=C(O)c1ccc(C2SCC(=O)N2Cc2ccco2)cc1 (stereo not drawn)	inactive: 0.36%	
CCCCNC(=O)C1(C)CCCCN1C(=O)c1cc(OC)ccc1Br (stereo not drawn)	inactive: -1.36%	
Cc1ccccc1NC(=O)c1cccc(S(=O)(=O)N2CCCCC2)c1	inactive: 21.2%	
Cc1ccc(NC2CCCN(C(=O)c3cn4cccc(C)c4n3)C2)cc1C (stereo not drawn)	inactive: -2.17%	
COc1ccc(C(C(O)C(=O)c2c[nH]c3ccccc23)N2CCN(c3ccccc3)CC2)cc1 (stereo not drawn)	inactive: 13.1%	
O=C(CNC(=S)NC(=O)c1ccccc1)c1ccccc1	inactive: 24.2%	
O=C1C2CC=CCC2C(=O)N1c1ccc(NCCc2ccccc2)c([N+](=O)[O-])c1 (stereo not drawn)	inactive: -24.9%	
CCNc1nc(OC)nc(Oc2ccc(=O)n(-c3ccccc3)n2)n1	inactive: 26.4%	
CC(=O)Nc1ccc(OCCOc2ccc(/C=C3\C(=N)N4N=C(C)SC4=NC3=O)cc2)cc1	inactive: -2.22%	
CCOc1ccc(NC(=O)C2CC(C)=C(C)CC2C(=O)O)cc1 (stereo not drawn)	inactive: 7.92%	
Cc1ccc(C(=O)NNC(=O)C2CCN(c3ncccn3)CC2)cc1	inactive: 2.69%	
CCCn1c(SCC(=O)Nc2ccc3c(c2)OCCO3)n[nH]c1=O	inactive: -0.0874%	
CCN(Cc1ccccc1)C(=O)CSc1nncn1C	inactive: 6.44%	
Cc1ccc(NC(=O)COc2ncnc3c(Cl)cc(Cl)cc23)cc1[N+](=O)[O-]	inactive: -0.828%	
O=S(=O)(/N=C(/c1ccccc1)N1CCOCC1)c1ccc(F)cc1	inactive: -12.2%	

SMILES	growth rescue (activation)	Potency
COc1cccc(CC(=O)Nc2ccc(F)c(S(=O)(=O)N3CCOCC3)c2)c1	inactive: -12.5%	
Cc1ccc(C)c(NC(=O)CN(C)C(=O)c2cccc(S(=O)(=O)N3CCCC3)c2)c1	inactive: -2.62%	
CC(C)C(NS(=O)(=O)c1cccs1)C(=O)NCc1ccccc1Cl (stereo not drawn)	inactive: -21.5%	
Brc1ccc(-c2ccc(/C=N/Nc3nc(N4CCOCC4)nc(N4CCOCC4)n3)o2)cc1	inactive: 11.5%	
CCNC(=O)C1(C)CCN(Cc2ccccc2C#N)C1 (stereo not drawn)	inactive: -9.12%	
Cc1ccc(C(=O)NC(=O)CSc2nncn2C)cc1	inactive: 10.1%	
Cc1ccc(S(=O)(=O)N/N=C/c2c(F)cccc2Cl)cc1	inactive: 34.7%	
CCOC(=O)c1cnc(-c2ccccc2)nc1-c1ccccc1	inactive: 8.8%	
O=C(Nc1sc2c(c1C(=O)O)CCCCC2)c1ccccc1	inactive: -92.5%	
CC1Cc2ccccc2N1Cc1ccc([N+](=O)[O-])cc1 (stereo not drawn)	inactive: 3.84%	
COc1ccccc1NC(=S)NN1CCN(C)CC1	inactive: 10.5%	
Cc1ccc(N(CC(O)CN2C(=O)NC(C)(C)C2=O)S(=O)(=O)c2ccc(C)cc2)cc1 (stereo not drawn)	inactive: -6.15%	
O=C(Nc1ccccc1C(F)(F)F)C1CCN(C(=O)c2cccs2)CC1	inactive: 12.5%	
O=c1c2ccc(Cl)cc2nc2n1CC/C2=C\c1cccc(O)c1	inactive: 16.2%	
O=C(Nc1ccc(F)cc1)c1ccccc1NS(=O)(=O)N1CCCC1	inactive: 8.61%	
COc1ccc(OC)c(CC(=O)N2CCc3cc(OC)c(OC)cc3C2)c1	inactive: -6.18%	
O=C(c1cc(-c2ccccc2)on1)N1CCc2ccccc2C1	inactive: 6.76%	
O=C(Cn1cncn1)N/N=C/c1ccc(Cl)cc1	inactive: 9.6%	
COc1ccc(OCC(=O)Nc2ccc(Cl)cc2)cc1	inactive: 17.5%	
CC(C)n1cc(CN2CCC(Oc3ccc(C(=O)N4CCCCC4)cc3)CC2)cn1	inactive: 21.6%	
O=S(=O)(c1c(F)cccc1F)N1CCN(C(=S)NCc2ccc3c(c2)OCO3)CC1	inactive: 13.1%	
O=C(CSc1nncs1)NNC(=O)c1ccccc1Br	inactive: -3.87%	

SMILES	growth rescue (activation)	Potency
CCOc1cc(CN2CCN(S(=O)(=O)Cc3ccccc3)CC2)ccc1OC	inactive: -13.9%	
NNC(=O)CCN1CCN(C(c2ccccc2)c2ccccc2)CC1	inactive: 7.97%	
CSc1nc(C)c2c(n1)N(c1ccc(C(F)(F)F)cc1)CC2	inactive: 19.2%	
CCC(CC)C(=O)Nc1nc(-c2ccc3c(c2)CCN3C(=O)C2CC2)c(C)s1	inactive: -0.637%	
COC(=O)CN(c1ccc(Cl)cc1C)S(C)(=O)=O	inactive: 6.54%	
CCCC(C)c1nnc(NC(=O)C2CC(=O)N(c3ccc(OCC)cc3)C2)s1 (stereo not drawn)	inactive: 5.56%	
O=C(CSc1n[nH]c(-c2ccccc2)n1)N1CCCC1	inactive: 11.8%	
CC(C)n1nnnc1SCC(=O)Nc1ccccc1N1CCOCC1	inactive: 33.7%	
COc1ccc(C(=O)CCC(=O)NCCc2c[nH]c3ccccc23)cc1OC	inactive: -3.98%	
CCCN(CCC)CC(O)Cn1cc(/C=C/C(=O)c2ccc(OC)cc2)c2ccccc21 (stereo not drawn)	inactive: 11.3%	
O=c1[nH]ncn1-c1ccc(Br)cc1	inactive: 7.63%	
c1cc(CNCC2CCCO2)ccn1 (stereo not drawn)	inactive: 3.37%	
COc1ccc(-c2ccnc3cc(C(=O)O)nn23)cc1	inactive: 7.57%	
O=C(NCCc1ccccc1)C1CCN(Cc2ccccc2F)CC1	inactive: -10.7%	
COc1ccccc1N(C)S(=O)(=O)c1ccc(C(=O)NC2CCCCCC2)cc1	inactive: 29%	
CC(C)(C)c1nc2ccc(NS(=O)(=O)c3ccc(F)c(F)c3F)cc2[nH]1	inactive: -5.77%	
COC(=O)Cn1cc([N+](=O)[O-])nc1C	inactive: -5.66%	
Cc1ccc(S(=O)(=O)NNC(=O)CCC(=O)Nc2ccc(C)cc2C)cc1	inactive: -2.06%	
O=C(COc1ccccc1)Nc1c(Cl)ccc2nsnc12	inactive: 12.7%	
Cc1ccccc1S(=O)(=O)c1cc(C#N)c(=O)[nH]c1N	inactive: 2.32%	
